Laboratory results published in PubChem BioAssay AID588591 (National Center for Advancing Translational Sciences (NCATS), 2011).
In all, about 390,000 compounds went through this assay and about 4,700 (1.2%) were called active. The inconclusive results got no clear call from the source; some entries with a clear call stand among them for comparison. Calls come from the whole dose curve; as a rule, active = well fitted inhibition curve with a large enough effect; inconclusive = small, poorly fitted or top-dose-only effect, or another doubt; inactive = no such curve, though single readings can be large or run the other way. Where the call is inconclusive, the potency comes from a doubtful curve fit.

target: DNA polymerase eta (Homo sapiens) (UniProt Q9Y253); experiment: qHTS for Inhibitors of Polymerase Eta; details: recombinant Pol eta, fluorescent DNA replication assay; series mostly up to 114 µM; activity change, negative = inhibition: at the top concentration
UniProt Q9Y253, sequence (Q9Y253 whole entry, looked up): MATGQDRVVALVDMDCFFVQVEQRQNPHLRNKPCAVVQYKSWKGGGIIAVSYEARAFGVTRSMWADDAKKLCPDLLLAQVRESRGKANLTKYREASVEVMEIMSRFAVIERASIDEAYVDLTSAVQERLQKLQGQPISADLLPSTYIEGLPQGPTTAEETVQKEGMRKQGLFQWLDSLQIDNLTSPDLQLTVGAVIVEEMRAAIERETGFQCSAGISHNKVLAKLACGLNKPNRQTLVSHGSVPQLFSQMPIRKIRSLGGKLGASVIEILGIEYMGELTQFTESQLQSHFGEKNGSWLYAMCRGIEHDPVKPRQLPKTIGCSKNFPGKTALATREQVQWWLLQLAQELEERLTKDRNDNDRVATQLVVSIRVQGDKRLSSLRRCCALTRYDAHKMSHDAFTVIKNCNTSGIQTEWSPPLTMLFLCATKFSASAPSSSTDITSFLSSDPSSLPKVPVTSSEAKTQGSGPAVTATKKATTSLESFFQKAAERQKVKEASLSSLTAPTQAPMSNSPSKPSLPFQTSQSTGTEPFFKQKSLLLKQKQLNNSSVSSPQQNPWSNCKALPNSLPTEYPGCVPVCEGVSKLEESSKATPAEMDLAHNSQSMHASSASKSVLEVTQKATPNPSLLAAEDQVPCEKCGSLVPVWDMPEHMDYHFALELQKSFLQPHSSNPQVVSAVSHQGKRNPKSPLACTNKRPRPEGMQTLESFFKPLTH
Outline: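 Fluorescent replication assay: 50 nM final substrate added after a 15 min room-temperature compound preincubation with 10 nM enzyme. Signal taken at 0 min and again at 10 min.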
% is set by controls: 0 for no effect and ±100 for the full control effect; potency is the fitted concentration of half-maximal effect; tags give direction and shape of the fitted curve.

Question: `Cc1ccc(-c2cc3c(nn2)-c2ccccc2C3=O)cc1` was tested. Which Potency did it give?
Answer: Its Potency is inconclusive: 15.8 µM [inhibitor, full curve].

Question: For `NC(=S)n1[nH]c(-c2ccc([N+](=O)[O-])cc2)c(N=Nc2ccccc2[N+](=O)[O-])c1=O`, which Potency is on record?
Answer: The Potency was active: 6.31 µM.

Question: Which Potency does the source give for `Cc1cc(S(=O)(=O)N2CCN(Cc3ccccc3)CC2)c(C)s1` here?
Answer: Its Potency is inconclusive: 89.1 µM [inhibitor, partial curve, poor fit].

Question: For `O=C(OCC(=O)N1CCN(c2ccccc2)CC1)c1ccc([N+](=O)[O-])s1`, which Potency is on record?
Answer: The Potency was inconclusive: 31.6 µM [inhibitor, partial curve, poor fit].

Question: Which Potency does the source give for `Cc1ccc(S(=O)(=O)N2CCN(C(=O)c3cccc(-n4cccc4)c3)CC2)cc1` here?
Answer: Its Potency is active: 17.8 µM.

Question: With `CCN(CC)S(=O)(=O)c1ccc(C(=O)NNC(=O)c2cccs2)cc1` as the compound, how does the Potency read?
Answer: Its Potency is inconclusive: 100 µM [inhibitor, partial curve, poor fit].

Question: `O=C1CCCC(O)=C1N=Nc1c(Cl)cc(C(F)(F)F)cc1Cl` was tested. Which “activity change, negative = inhibition” value did it give?
Answer: Its value is inactive: -16.5%.

Question: How did the Potency turn out when `COCCCN1CN(S(=O)(=O)c2ccc(Cl)cc2)c2nc3ccccc3nc21` was run?
Answer: Its Potency is inconclusive: 39.8 µM [inhibitor, single point].

Question: `N#C/C(=C/c1ccc(N2CCCCC2)o1)C(=O)Nc1ccc2ccccc2c1` was tested. Which Potency did it give?
Answer: The Potency was inconclusive: 79.4 µM [inhibitor, partial curve, poor fit].

Question: For `Cc1cc(/C=C2/C(=N)N3C(=NC2=O)SN=C3S(C)(=O)=O)c(C)n1-c1ccccc1F`, which Potency is on record?
Answer: Its Potency is active: 79.4 µM.

Question: With `Cc1cc(C)cc(N=C2SC(CC(=O)Nc3ccccc3)C(=O)N2CCN2CCOCC2)c1` (stereo not drawn) as the compound, how does the Potency read?
Answer: Its Potency is inconclusive: 28.2 µM [inhibitor, full curve, poor fit].

Question: How did the Potency turn out when `COC(=O)CCCC1=CC2=CC(=O)C(C)(OC(=O)c3cccs3)C(=O)C2=CN1c1ccccc1` (stereo not drawn) was run?
Answer: The Potency was inconclusive: 35.5 µM [inhibitor, partial curve].

Question: For `COc1ccc(-c2cn3c(n2)sc2cc(C(=O)NCCC4=CCCCC4)ccc23)cc1`, which “activity change, negative = inhibition” value is on record?
Answer: The value was inactive: -21.2%.

Question: `O=C(CN1CCC(n2nnc3cc(C(F)(F)F)ccc32)CC1)Nc1ccc2c(c1)CCC2` was tested. Which Potency did it give?
Answer: The Potency was inconclusive: 14.1 µM [inhibitor, partial curve, poor fit].

Question: With `Cc1c(Br)c(O)c(Br)c(O)c1/C=N/n1c(-c2ccccc2)n[nH]c1=S` as the compound, how does the Potency read?
Answer: The Potency was active: 3.16 µM.

Question: With `Cc1ccc(S(=O)(=O)NC(=O)NN2CCCCCC2)cc1` as the compound, how does the Potency read?
Answer: Its Potency is “inactive”.

Question: How did the Potency turn out when `O=C(NNC(=O)c1ccccc1O)c1cc2ccccc2o1` was run?
Answer: The Potency was inconclusive: 44.7 µM [inhibitor, partial curve, poor fit].

Question: Which Potency does the source give for `Cc1cccc(OCc2ccc(C(=O)N3CCOCC3)o2)c1` here?
Answer: The Potency was inconclusive: 89.1 µM [inhibitor, partial curve, poor fit].
